Structures are written as SMILES. Out of some 48,000 compounds screened, about 550 (1.1%) were called active. Another 4% or so got no clear call; they are omitted. No stated cut-off is given here; in the data, active means potency below about 15 µM; inconclusive means mostly about 16 µM to 33 µM; inactive means weaker than that. The list shows a part of the results.
Potency means the concentration at half of the fitted maximal effect.

The target of this assay is Lysosomal acid glucosylceramidase (Homo sapiens) (UniProt P04062). Nature of the assay: Glucocerebrosidase.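 Further: the screen sought inhibitors.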 Particulars: purified enzyme, resorufin glucoside fluorescence (screen aimed at inhibitors), 20 min; series mostly up to 77 µM. In short, it runs like this: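 Normal human glucocerebrosidase (0.2 nM final) was assayed with resorufin β-D-glucopyranoside (30 uM final) in 50mM citric acid/KH2PO4, 10mM sodium taurocholate, 0.01% tween-20, pH 5.9. Compounds were titrated; fluorescence (Ex 548, Em 600) read after 20 min at RT.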
Chain of UniProt P04062 (P04062 whole entry, looked up): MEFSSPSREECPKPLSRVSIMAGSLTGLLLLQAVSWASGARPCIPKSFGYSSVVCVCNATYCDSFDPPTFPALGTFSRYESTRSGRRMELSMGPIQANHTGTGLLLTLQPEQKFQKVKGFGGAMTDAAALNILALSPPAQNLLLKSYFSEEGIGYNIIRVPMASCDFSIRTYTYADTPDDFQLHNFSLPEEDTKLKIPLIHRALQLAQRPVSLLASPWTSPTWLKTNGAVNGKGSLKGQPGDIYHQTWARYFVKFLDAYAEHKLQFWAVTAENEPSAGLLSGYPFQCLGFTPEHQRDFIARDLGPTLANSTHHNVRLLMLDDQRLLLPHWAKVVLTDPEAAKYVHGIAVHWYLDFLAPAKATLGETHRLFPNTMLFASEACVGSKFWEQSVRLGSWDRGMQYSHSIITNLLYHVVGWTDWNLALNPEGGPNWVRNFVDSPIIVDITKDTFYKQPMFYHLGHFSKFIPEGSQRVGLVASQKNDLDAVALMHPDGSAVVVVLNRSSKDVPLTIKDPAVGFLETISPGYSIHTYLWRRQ
As for `COC(=O)C1C2C=CC3(CN(CC4CCCO4)C(=O)C13)O2` (stereo not given), the Potency was inactive: > 76.9 µM.
In the case of `c1ccc(CNc2ccc3c(c2)ncn3C2CCCCC2)nc1`, the Potency is inactive: > 76.9 µM.
To `O=C(Nc1cnc2ccccc2c1)c1ccco1` belongs inactive: > 76.9 µM.
Consider `CCOc1cc2[nH]c(=O)n(CCC(=O)NCCc3ccc(OC)c(OC)c3)c(=O)c2cc1OCC`, for which the Potency is inactive: > 76.9 µM.
To `O=C(NCC(c1cccnc1)N1CCN(c2ccc(F)cc2)CC1)c1ccccc1` (stereo not given) belongs inactive: > 76.9 µM.
As for `NC(=O)Cc1c[nH]c2cccc(O)c12`, the Potency is inactive: > 76.9 µM.
On to `CCOC(=O)c1sc(C)nc1C1CCN(C(=O)OCC)CC1`, for which the Potency is inactive: > 76.9 µM.
The figure for `O=C(CCS(=O)(=O)Cc1ccccc1)Nc1nc2c(s1)CCCC2` is inactive: > 76.9 µM; for `COc1cccc(C(=O)Nc2ccc(NC(C)=O)cn2)c1` it is inactive: > 76.9 µM.
For `Cc1cc2c(N3CCCCC3C)ncnc2s1` (stereo not given), the Potency was inactive: > 76.9 µM.
`CC(=O)Nc1cc(-c2nn(CC(=O)N3CCCCC3)c(=O)c3ccccc23)ccc1N1CCOCC1`: the Potency was inactive: > 76.9 µM.
In the case of `Cc1ccc2c(C(=O)CN3CCN(C4CCCCC4)CC3)c(C)[nH]c2c1`, the Potency is inactive: > 76.9 µM.
The figure for `CN(C)c1ccc(N/C=C/C(=O)c2ccccc2)cc1` is inactive: > 76.9 µM; for `COc1cc2c(cc1OC)C(C(=O)N1CCOCC1)C(c1cccs1)N(C)C2=O` (stereo not given) it is inactive: > 76.9 µM.
The figure for `COc1ccc(NC(=O)C2(N(CC(C)C)C(=O)Cn3nnnc3N)CCCCC2)cc1` is inactive: > 76.9 µM; for `CC(C)C(NC(=O)c1cccs1)c1nnc(SCC(=O)Nc2nccs2)n1C` (stereo not given) it is inactive: > 76.9 µM; for `NC(=O)c1c(NC(=O)COC(=O)CSc2nnc(-c3ccc(Cl)cc3)o2)sc2c1CCC2` it is inactive: > 76.9 µM.
Regarding `COC(=O)CCc1c(C)c(C(=O)c2ccco2)c2ccccn12`, the Potency was inactive: > 76.9 µM.
The figure for `Cn1c(-c2ccccc2)c(CCO)c2ccccc21` is inactive: > 76.9 µM; for `O=C(c1ccccc1)N1CCN(c2ccccc2F)CC1` it is inactive: > 76.9 µM.
As for `CCCCC(c1nnnn1CC1CCCO1)N1CCN(c2nc3ccccc3s2)CC1` (stereo not given), the Potency is inactive: > 76.9 µM.
The figure for `Cc1cccc(N2CCN(C(=O)C3CCCN(S(=O)(=O)c4cnc[nH]4)C3)CC2C)c1` (stereo not given) is inactive: > 76.9 µM; for `Cc1ccc(-n2c(Cc3cccn3C)nnc2SCC(=O)NCc2ccco2)cc1` it is inactive: > 76.9 µM; for `CC1CN(c2nc3c(c(=O)n(Cc4ccc(Cl)c(Cl)c4)c(=O)n3C)n2C)CC(C)O1` (stereo not given) it is inactive: > 76.9 µM.
Turning to `C=CCSc1nncn1/N=C/c1ccc(OC)cc1`, the Potency is inactive: > 76.9 µM.
Take `Cc1cccc(N2CC(C)Cn3c2nc2c3c(=O)n(CC(=O)OCc3ccccc3)c(=O)n2C)c1` (stereo not given): the Potency is inactive: > 76.9 µM.
For the molecule `NC(=O)c1cc(-c2ccccc2)nc(N2CCCCCC2)n1`, the Potency is inactive: > 76.9 µM.
As for `Fc1ccc(CNc2ccc(CNc3ncn[nH]3)cc2)cc1`, the Potency was inactive: > 76.9 µM.
Take `COCCn1c(=O)[nH]c2cc(C(=O)NCCN3CCN(c4ccccc4)CC3)ccc2c1=O`: the Potency is inactive: > 76.9 µM.
`Cc1nnc(SCc2ccccc2Cl)n1CC1CCCO1` (stereo not given): the Potency is inactive: > 76.9 µM.
Regarding `O=C(CSc1ccc(-c2ccc(F)cc2)nn1)N1CCCCC1`, the Potency was inactive: > 76.9 µM.
To `O=C(NCc1cccnc1)Nc1cccc(NC(=O)NCc2cccnc2)c1` belongs inactive: > 76.9 µM; to `COc1cccc(C2=NOC(C(=O)Nc3ccc(OC)c(OC)c3)C2)c1` (stereo not given), inactive: > 76.9 µM; to `Oc1ccc(-c2[nH]ncc2-c2cccc3cccnc23)c(O)c1`, inactive: > 76.9 µM.
To `CCOC(=O)CCNC(=O)c1ccccc1Br` belongs inactive: > 76.9 µM; to `COc1cc(-c2nnc(CSc3nc4ccccc4s3)o2)cc(OC)c1OC`, inactive: > 76.9 µM; to `O=C(CCSc1nnnn1-c1ccccc1)N1CCOCC1`, inactive: > 76.9 µM.
Consider `Cc1ccc(C(=O)CSc2nc3ccccc3c(=O)n2N)o1`, for which the Potency is inactive: > 76.9 µM.
For `CCN(CC(=O)Nc1ccccc1C(=O)OC)S(=O)(=O)c1ccc(OC)cc1`, the Potency is inactive: > 76.9 µM.
Take `O=C(Nc1ccc2c(c1)OCO2)C1CCN(Cc2cnn(-c3ccccc3)c2-n2cccc2)CC1`: the Potency was inactive: > 76.9 µM.
To `O=C(CCCn1c(=O)c2sccc2n(CC(=O)OCc2ccccc2)c1=O)NCc1ccco1` belongs “inactive”; to `COC(=O)c1cc(CC(=O)c2ccc(O)cc2O)c(C)o1`, inactive: > 76.9 µM; to `O=C(CCn1[nH]c(=O)c2ccccc2c1=O)OC1CCCCC1`, inactive: > 76.9 µM.
The figure for `CCC1(CC)Nc2ccccc2C(=O)N1c1ccc(NC(C)=O)cc1` is inactive: > 76.9 µM; for `O=c1[nH]c(CN2CCN(Cc3ccc4c(c3)OCO4)CC2)nc2ccccc12` it is inactive: > 76.9 µM.
As to `c1csc(CSc2nc3ccccc3s2)c1`, the Potency was inactive: > 76.9 µM.
The figure for `Cc1ccc(O)c(NC(=O)c2cccc(S(=O)(=O)N3CCCCC3)c2)c1` is inactive: > 76.9 µM; for `COc1ccc(S(=O)(=O)N(CCCN2CCCC2=O)Cc2cc3cc(C)c(C)cc3[nH]c2=O)cc1` it is inactive: > 76.9 µM.
For `Fc1ccc(CN2CCSCC2)cc1Br`, the Potency is inactive: > 76.9 µM.
To `Cc1cc(S(=O)(=O)N(Cc2ccc3c(c2)OCO3)CC2CCCO2)ccc1-n1cnnn1` (stereo not given) belongs inactive: > 76.9 µM; to `CCCCNC(=O)CCCCCNS(=O)(=O)c1ccc(OC)cc1`, inactive: > 76.9 µM.
For `CCCSC1=C(C#N)C(c2ccccc2OCC)CC(=O)N1` (stereo not given), the Potency is inactive: > 76.9 µM.
Regarding `COc1ccc(CC(=O)Nc2nc(C)cs2)cc1OC`, the Potency is inactive: > 76.9 µM.
To `Cc1c(OC(=O)CNC(=O)OC(C)(C)C)ccc2c3c(c(=O)oc12)CCC3` belongs inactive: > 76.9 µM.
The figure for `Cc1cc2c(c(C)nn2-c2ccccc2)c(=O)o1` is inactive: > 76.9 µM; for `Cn1c(=O)c2c(nc(CN3CCOCC3)n2CCc2ccccc2)n(C)c1=O` it is inactive: > 76.9 µM; for `CCOC(=O)c1cc(OCC(=O)NC(C)C(C)C)cc(C(=O)OCC)c1` (stereo not given) it is inactive: > 76.9 µM.
The figure for `CC(C)C(NS(=O)(=O)c1cccs1)C(=O)NCCN1CCN(c2ccccc2)CC1` (stereo not given) is inactive: > 76.9 µM.
With `N#CCSc1nc2cc(C(=O)N3CCCC3)ccc2c(=O)n1Cc1ccccc1`, the Potency was inactive: > 76.9 µM.
`CC1CC(C)CN(C(=O)COC(=O)c2cc3ccccc3cc2O)C1` (stereo not given): the Potency is inactive: > 76.9 µM.
Turning to `COc1cc(OC)c(C(=O)Nc2ccc(S(=O)(=O)Nc3ncccn3)cc2)cc1OC`, the Potency was inactive: > 76.9 µM.
Consider `O=C(Nc1ccc2c(c1)OCO2)C1CCN(C(=O)CSc2ncnc3ccccc23)CC1`, for which the Potency is inactive: > 76.9 µM.
Consider `CCC(=O)N(Cc1cc(=O)[nH]c2ccccc12)c1cccc(C)c1`, for which the Potency was inactive: > 76.9 µM.
To `Cc1nnc2ccc(N3CCCC3)nn12` belongs inactive: > 76.9 µM; to `Cc1ccc(SCCNS(C)(=O)=O)cc1`, inactive: > 76.9 µM.
To `Cn1c(=O)cc(SCC(=O)NCc2cccnc2)c2ccccc21` belongs inactive: > 76.9 µM.
The figure for `Cc1ccc(N(C(=O)CCC(=O)Nc2cc(C)on2)C(C(=O)NC2CCCC2)c2ccncc2)cc1` (stereo not given) is inactive: > 15.4 µM.
As to `CC(NC(=O)c1cccs1)c1ccc2c(c1)OCO2` (stereo not given), the Potency is inactive: > 76.9 µM.
As to `COc1ccc(N2C(=O)CSC23C(=O)Nc2ccccc23)cc1OC` (stereo not given), the Potency was inactive: > 76.9 µM.
The figure for `O=C(CSc1nnc(-c2ccc(OC(F)F)cc2)o1)NC(=O)NCc1ccco1` is inactive: > 76.9 µM; for `CCNC(=O)c1c(C)[nH]c(C(=O)OCC)c1C` it is inactive: > 76.9 µM.
To `COCCn1c(CN2CCN(c3ccc(OC)cc3)CC2)nc2c1c(=O)n(C)c(=O)n2C` belongs inactive: > 76.9 µM; to `CCOC(=O)c1ccc(NC(=O)CSc2nnc(CNc3ccc(OC)cc3)n2C)cc1`, inactive: > 15.4 µM; to `Cc1cc(C)n(C(C)n2nc(C)cc2C)n1`, inactive: > 76.9 µM.
For the molecule `CN=C(Nc1cc(C)nn1CCC#N)c1ccccc1`, the Potency is inactive: > 76.9 µM.
To `Cc1cc2cc(CN(CCCO)S(=O)(=O)c3cccc4nsnc34)c(=O)[nH]c2cc1C` belongs inactive: > 76.9 µM; to `Cc1ccc(N2CCN(C(=S)c3ccc(N(C)C)cc3)CC2)cc1`, inactive: > 76.9 µM; to `COc1ccccc1N(CN1CCCC1=O)C(=O)c1ccccc1F`, inactive: > 76.9 µM.
The figure for `COC(=O)[C@H](C)NC(=O)NCc1ccco1` is inactive: > 76.9 µM.
With `Cc1ccc(OCC(=O)NCCN2CCCC2)cc1`, the Potency was inactive: > 76.9 µM.
The figure for `COc1ccc(-c2c3c(=O)n(C)c(=O)n(C)c3cn2Cc2ccccn2)cc1` is inactive: > 76.9 µM; for `COc1ccc(-c2nnc(SCC(=O)NC(C)C)n2CC2CCCO2)cc1OC` (stereo not given) it is inactive: > 76.9 µM; for `COc1ccc(CCNS(=O)(=O)c2ccc3oc(C(=O)O)c(C)c3c2)cc1OC` it is inactive: > 76.9 µM.
The figure for `O=C(CN1C(=O)c2ccccc2S1(=O)=O)Nc1cccnc1` is inactive: > 76.9 µM; for `Cc1nnc(NC(=O)c2cc3n(n2)C(C(F)(F)F)CC(C2CC2)N3)s1` (stereo not given) it is inactive: > 76.9 µM; for `CCCNC(=O)c1cc(-c2ccco2)on1` it is inactive: > 76.9 µM.
As to `COc1cccc(C(=O)Nc2c3c(nn2-c2ccccc2C)CS(=O)C3)c1OC` (stereo not given), the Potency is inactive: > 76.9 µM.
Regarding `Cc1nc2c(C)cccn2c1/C(O)=C1\C(=O)C(=O)N(CCN2CCOCC2)C1c1ccncc1` (stereo not given), the Potency is inactive: > 76.9 µM.
With `Cc1cccc(NS(=O)(=O)c2cccs2)n1`, the Potency is inactive: > 76.9 µM.
With `CC(C)OC(=O)CSc1nc2ncccc2[nH]1`, the Potency is inactive: > 76.9 µM.
